Experimental data taken from the supplement of paper PMC11417369.
± gives the standard deviation of the averaged measurements. This is one part of the list.

Tested on: PfAP2-I AP2 domain 3 (GST-tagged)
Assay: gcPBM binding intensity (ln(normalized median fluorescence intensity)); higher = stronger DNA binding
How it was run: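 Binding intensity values are the highest Masliner-normalised natural-log median intensity among replicate spots of either probe orientation. The binding step lasted 1 h in 1× PBS with 1% milk, 0.2 mg/ml BSA, 0.5% salmon testes DNA and 0.03% Triton X-100, using GST-tagged P. falciparum DNA-binding domains expressed in E. coli on an Agilent 4 × 180k array of primer-extended double-stranded 36-bp intergenic genomic probes plus negative controls. Alexa488 anti-GST antibody and a 488 nm scan detected bound protein.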

Sequence	gcPBM binding intensity (ln)
AACAATTATTTATCTACACACTTTTATGTTATTTAC [CACACA_site9]	7.88 ± 0.67
AAATATACAAAATATACACACATATTTATTTATGAT [CACACA_site2051]	7.44 ± 0.59
AAAATTAAAATATATACACACATATATATATTAAAT [CACACA_site4419]	7.42 ± 0.39
TCTTCCCAAATAAAGTGTACATAAATACGAATAATA [XGTACX_site4363]	7.91 ± 0.36
TAATGTATATGTAAATGTACATGTATATTATTTAAA [XGTACX_site1840]	7.64 ± 0.24
AAGATATTTGTATAATGTACAAAACTATATAAAACT [XGTACX_site1433]	7.79 ± 0.69
ATCAAAGATAAATTTACACACATATATATATATATA [CACACA_site2969]	9.3 ± 0.26
TTGTTCCACAAAAATTTAGTCAAAAAAAAATAAAAA [TGCATGCA_negctrl_site546]	7.46 ± 0.61
AATGAATAACAATACTATATGATTTTTAATACATTA [XGTACX_negctrl_site42]	7.13 ± 0.52
ACAAAAAAAAAAATAACACACATGGGGGTGTATAAA [CACACA_site3797]	8.68 ± 0.11
TTAAATTTTTTTTTGTGTACGAAAAACAGAAAAAAT [XGTACX_site8625]	8.18 ± 0.25
ATATATATATACATATGTACATATAAAATAATTTTG [XGTACX_site3731]	9.03 ± 0.25
TATGTGTATGGGAATGCATGTAAATATGTACATATA [TGCATGCA_site737]	8.28 ± 0.12
TCTATTCATTTTGAAGGTACACATTTCTTTATAATA [XGTACX_site6218]	7.68 ± 0.49
GTATTAGATAAATACACACACAAGCATATATTTTTA [CACACA_site3431]	7.61 ± 0.52
AATAAATATATAAATACACACAAACATACATATATA [CACACA_site9340]	7.71 ± 0.36
AATATATCATTATATAAACACACAATATGTTTTTTA [CACACA_site9260]	7.51 ± 0.54
AAAAATATATATATATATATATATATAAGGAATATA [XGTACX_negctrl_site450]	8.29 ± 0.27
AATACAATATAGTGAAAAATAATTAAATACAATAAG [XGTACX_negctrl_site161]	7.87 ± 0.45

Sequence	gcPBM binding intensity (ln)
CGTAAACAATTATGATGTACATAAAATATATATATA [XGTACX_site2705]	8.93 ± 0.014
TTATTTACATCAAGTACATGCAGTAAAAAAAAAAAA [TGCATGCA_site351]	8.34 ± 0.5
CACCAATTCCTATGCACACACATCTGCATATTATAT [CACACA_site5049]	9.14 ± 0.23
ACAAAACGAACATACGCATGTGTGTACATTAATATA [TGCATGCA_site922]	8.14 ± 0.099
ATGAACAGTTCATGTTGTACAATCTCCATTTTTTAC [XGTACX_site3933]	7.98 ± 0.65
ATATAATATATGTATACACACATATTATATAATATT [CACACA_site3699]	7.56 ± 0.54
CAATATAAAAAACACACACACAAACATATATTTATA [CACACA_site3703]	7.67 ± 0.36
TGTCGGCTTAGATTAGTGCACTGAAAAATGAAGTAT [GTGCAC_site9919]	11.8 ± 0.28
TATTTATATAAAAATACACACATGAATGGATATATA [CACACA_site6335]	7.57 ± 0.45
GTAACATACACATATACACACACACCGATATACATA [CACACA_site8278]	8.12 ± 0.45
AATATAGTTCAATATACACACCCCTTTATTCATTTT [CACACA_site3625]	7.88 ± 0.73
ATTAATTAAGGCACATGTACAAAATATTTTTTATAA [XGTACX_site1964]	9.95 ± 0.45
TATACAATCTATATAACACACATATTTATATAAAAT [CACACA_site1797]	7.72 ± 0.38
ATTTAACTAAAGAAGGCACACGTGTTTAAAAAAAAA [CACACA_site5241]	8.18 ± 0.79
CATTTATATATATACACACACACAAAAAAAAAAAAA [CACACA_site2645]	8.13 ± 0.49
AATATTATATTTTATTGTACTAATAAAAATATATGC [XGTACX_site5435]	7.79 ± 0.2
GACGTTATGATACACATACACACAGGGATAAAAAAT [CACACA_site2882]	8.06 ± 0.53
TATATATATATATATGCATGTACATATATTTGTTAT [TGCATGCA_site379]	9.45 ± 0.14
TTTTTTTTTTTTTTTTGTACTTAAAAATTTATATAA [XGTACX_site7718]	8.03 ± 0.64

Sequence	gcPBM binding intensity (ln)
ATAATATGAAATATAACACACATATATAAAAACATT [CACACA_site866]	7.92 ± 0.57
TATTTTTTTTTTGGGTGTACCTTTTATATATATTGT [XGTACX_site5036]	7.97 ± 0.49
TATACACATTTTTATACACACTTGTTTTATAAAACG [CACACA_site6480]	8.06 ± 0.45
CATTTCGAAAAAAAATGTACTTATTATATTTATATA [XGTACX_site6752]	7.51 ± 0.31
TTATCTTACATAAATTATAACAATAATATGTGTATA [XGTACX_negctrl_site379]	7.26 ± 0.33
TGTATATATTATAAAAGTACATAATATTCTTAGATA [XGTACX_site5623]	7.48 ± 0.23
ACATCTCTTATATATTCACACACATATATATAATTA [CACACA_site8424]	8.41 ± 0.52
GCACATCTATATGAAACACACATGGAAACATCTCTT [CACACA_site7793]	7.84 ± 0.64
TTTTTTTTTTAATTCGCACACTGTCTTCATGCAATT [CACACA_site4882]	8.79 ± 0.64
TTAAAAAATTTTTAAGCACACACATAGATAATATAT [CACACA_site8440]	8.76 ± 0.32
AGCATTAAAAATGGAATGGAATTAAGCTATATATTA [CACACA_negctrl_site1571]	7.47 ± 0.61
GAAACTTCAAGAAATGCACACAATAAAATAAATAAA [CACACA_site1549]	8.91 ± 0.14
ATAGAATATTATATTACACACAGAATAATAAAAAAT [CACACA_site86]	7.75 ± 0.58
AGTATATATTATATATATATATATATATTATATATG [TGCATGCA_negctrl_site99]	7.8 ± 0.47
TTTAATCATATGTTATATAATAAGCCCCCCCCCCAA [CACACA_negctrl_site486]	11.1 ± 0.63
AAAAAAATTAAACATGAAGAATAAGGAACAAAAAAA [CACACA_negctrl_site1607]	7.73 ± 0.69
ATTTAAGTAGTACATACACACACATATACAAAAAGA [CACACA_site9317]	8.36 ± 0.28
ATGGGACATATATATACACACATATATATATATATA [CACACA_site1202]	9.22 ± 0.73
